# Experimental data taken from PubChem BioAssay AID504832 (National Center for Advancing Translational Sciences (NCATS), 2011).
# About 18,000 (5.8%) of roughly 310,000 compounds were called active. This list was built around the results that the source calls inconclusive (neither active nor inactive); the mix of calls is not that of the screen. Calls follow the shape of the dose curve; as a rule, active = well fitted inhibition curve with a large enough effect; inconclusive = small, poorly fitted or top-dose-only effect, or another doubt; inactive = no such curve, though single readings can be large or run the other way. Potencies of inconclusive entries are left out as doubtful fits. More than one record can exist for a structure, and the calls need not agree.
# Assay: Primary qHTS for delayed death inhibitors of the malarial parasite plastid, 48 hour incubation
# Settings: P. falciparum luciferase growth in erythrocytes; series mostly up to 28.7 µM; activity change, negative = inhibition: at the top concentration
# Summary of the method: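 Luminescence readout; reporter = integrated firefly luciferase in P. falciparum. RBC culture at 2% hematocrit, 0.1% parasitemia final, 37 C/5% CO2; decreased signal taken as growth inhibition.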
# % is scaled to controls: 0 for no effect and ±100 for the full control effect; potency is read from the fitted curve at half-maximal effect; tags tell the direction and shape of the fitted curve.
Compound,"activity change, negative = inhibition",Potency
CN(C)c1ccc(NC2=C([N+](=O)[O-])CS(=O)(=O)C2)cc1,inactive: -3.77%,
Cc1ccc(C(=O)OCc2ccc3c(c2)OCO3)cc1S(=O)(=O)N1CCCCC1,,"inconclusive [inhibitor, single point]"
O=C(NCc1ccccc1)C1CCN(S(=O)(=O)c2ccc(N3CCCC3=O)cc2)CC1,,"inconclusive [inhibitor, full curve]"
CCCS(=O)(=O)N1CCC(C(=O)NCCc2ccc(C)cc2)CC1,inactive: -12.2%,
CCCCCCSc1ccc([C@H]2N[C@@](CC(C)C)(C(=O)OC)[C@H]3C(=O)N(CC)C(=O)[C@@H]23)cc1,,"inconclusive [inhibitor, single point]"
COc1ccccc1CNC(=O)C(=O)NCC(c1ccco1)N1CCOCC1 (centres undefined),inactive: 28.8%,
CSc1nc(N)n2nc(-c3ccccc3)cc2n1,inactive: 346%,
CCOc1ccc(NC(=O)Cn2nnc(C(=O)NCc3cccs3)c2N)cc1,inactive: 32.5%,
NNC(=O)c1cc2ccccc2cc1NS(=O)(=O)c1ccccc1,,active: 5.86 µM
CC1CN(C(=O)CCC(=O)N2CCOCC2)c2ccccc2O1 (centres undefined),inactive: 8.35%,
COCC(C)NC(=O)c1cc2cccc([N+](=O)[O-])c2[nH]1 (centres undefined),,active: 5.22 µM
CC(C)N1CCc2c(sc(NC(=O)C3CCCCC3)c2C(N)=O)C1,,"inconclusive [inhibitor, partial curve]"
CCC(C)Sc1nc2c(cnn2-c2ccc(C)c(C)c2)c(=O)[nH]1 (centres undefined),inactive: 8.3%,
CCOC(=O)C1CCCN(C(=O)CCc2nc3sc4c(c3c(=O)[nH]2)CCCC4)C1 (centres undefined),,"inconclusive [inhibitor, single point]"
Cc1nn(-c2ccccc2)c(C)c1CCC(=O)O,inactive: 2.22%,
COc1ccc(C(=O)CSc2nnc(CNC(=O)c3ccc(OC)cc3)n2C)cc1,,"inconclusive [inhibitor, partial curve, poor fit]"
CCC(=O)Nc1nnc(SCC(=O)N2c3ccccc3CC2C)s1 (centres undefined),,"inconclusive [inhibitor, partial curve]"
O=C(CSc1nnc(Cn2c(=O)sc3ccccc32)n1CCc1ccccc1)N1CCOCC1,,active: 9.28 µM
CC(C)(C)NC(=O)NC(=O)COC(=O)c1ccco1,inactive: 13.5%,
CC[N+](C)(CC)CCOC(=O)C(O)(c1ccccc1)C1CCCCC1 (centres undefined),,active: 11.7 µM
CNS(=O)(=O)c1ccc(C(C)(C)C)cc1,inactive: 122%,
CCn1cc(CN2N=C(C)CC2c2ccccc2)c(C)n1 (centres undefined),inactive: 14.9%,
COc1cccc(/C=N/NC(=O)C[n+]2ccccc2)c1O,,"inconclusive [inhibitor, partial curve]"
CCOC(=O)C1(CC2CC2)CCN(Cc2cnc(-c3ccc(OC)cc3)nc2)CC1,,"inconclusive [inhibitor, single point]"
CCOC(=O)C1=NN(c2ccc(Cl)cc2)/C(=C/C2=NCCc3cc(OC)c(OC)cc32)S1,,"inconclusive [inhibitor, partial curve, poor fit]"

Compound,"activity change, negative = inhibition",Potency
Cc1ccccc1/C=N/NC(=O)Cc1ccc(Cl)cc1,,"inconclusive [inhibitor, full curve, poor fit]"
O=C(Nc1ccccc1C(=O)NCCCN1CCOCC1)c1ccc(Cl)cc1,inactive: -10.1%,
C=Cn1ccnc1P(=S)(c1nccn1C=C)c1nccn1C=C,,"inconclusive [inhibitor, partial curve, poor fit]"
O=C1NC2=C(C(=O)CCC2)C(c2ccc(OC(F)F)cc2)N1 (centres undefined),inactive: 1.88%,
COc1ccc(N(CC(=O)NC2CCCCCC2)S(=O)(=O)c2ccccc2)cc1Cl,,"inconclusive [inhibitor, single point]"
O=C(Nc1ccccc1)O/N=C(\c1ccccc1)c1ccccn1,,"inconclusive [inhibitor, partial curve, poor fit]"
O=C(COC(=O)/C=C/c1ccc(OC(F)F)cc1)NC1CCCC1,inactive: 6.18%,
CC(CN1CCN(C)CC1)OC(=O)c1cccc(F)c1 (centres undefined),inactive: 7.38%,
CCc1nnc(NC(=O)c2ccc(COc3ccc(C)cc3)o2)s1,inactive: 21.8%,
CCN(CC)c1ccc(NC(=O)CN2CCN(CC(=O)Nc3ccccc3F)CC2)cc1,,active: 11.7 µM
Cc1ccccc1N1CC(C(=O)Nc2nnc(SCCC3OCCO3)s2)CC1=O (centres undefined),,"inconclusive [inhibitor, single point]"
Cc1ccccc1NS(=O)(=O)c1ccc(OCC(=O)NCC2CCCO2)cc1 (centres undefined),,"inconclusive [inhibitor, partial curve, poor fit]"
Cn1c(N2CCOCC2)c(/C=N/OC(=O)c2cccnc2Cl)c2ccccc21,,"inconclusive [inhibitor, full curve, poor fit]"
O=C(Nc1ccc(SC(F)F)cc1)C1=COCCO1,inactive: 141%,
O=C(COC(=O)Cc1ccccc1F)Nc1ccc2c(c1)OCO2,,"inconclusive [inhibitor, partial curve, poor fit]"
O=C(CCNC(=O)c1ccc(Br)cc1)NCC(c1ccco1)N1CCCCC1 (centres undefined),,"inconclusive [inhibitor, single point]"
CCCN(CCC)CCN1C(=O)C2C(C(=O)Nc3cccc(SC)c3)C3C=CC2(O3)C1C(=O)NC1CCCCC1 (centres undefined),,active: 3.7 µM
CCOC(=O)C1=NN(c2ccc(C)cc2)CC1C(=O)OC (centres undefined),inactive: 12.4%,
Cn1cccc1CC(=O)N/N=C/C=C/c1ccccc1,inactive: 56.6%,
CC(=O)N1CCN(S(=O)(=O)c2ccc(Cl)cc2F)CC1,,"inconclusive [inhibitor, full curve, poor fit]"
CC1CCCCN1CC(O)COCCC12CC3CC(CC(C3)C1)C2 (centres undefined),,"inconclusive [inhibitor, partial curve]"
CCOC(=O)c1c(C)[nH]c(C(=O)CN(C)CC(=O)Nc2ccccc2Cl)c1C,,"inconclusive [inhibitor, single point]"
Cc1[nH]c2ccccc2c1C(=O)C(=O)N1CCCc2ccccc21,,"inconclusive [inhibitor, single point]"
COc1ccc(CNS(=O)(=O)c2ccc3c(c2)NC(=O)CS3)cc1,inactive: 26.6%,
